Laboratory results from publication PMC10648259.
These are yes or no findings as the source states them, for the method shown. For some assays here: In cells and extracts the contact can be indirect. Some entries that bind do so weakly or less than the wild type. Where a sequence is shown, tags or fusion partners need not be part of it.

T1: Flag-GBP2 (full-length mouse guanylate-binding protein 2) (mouse) (UniProt Q9Z0E6)
T1 sequence: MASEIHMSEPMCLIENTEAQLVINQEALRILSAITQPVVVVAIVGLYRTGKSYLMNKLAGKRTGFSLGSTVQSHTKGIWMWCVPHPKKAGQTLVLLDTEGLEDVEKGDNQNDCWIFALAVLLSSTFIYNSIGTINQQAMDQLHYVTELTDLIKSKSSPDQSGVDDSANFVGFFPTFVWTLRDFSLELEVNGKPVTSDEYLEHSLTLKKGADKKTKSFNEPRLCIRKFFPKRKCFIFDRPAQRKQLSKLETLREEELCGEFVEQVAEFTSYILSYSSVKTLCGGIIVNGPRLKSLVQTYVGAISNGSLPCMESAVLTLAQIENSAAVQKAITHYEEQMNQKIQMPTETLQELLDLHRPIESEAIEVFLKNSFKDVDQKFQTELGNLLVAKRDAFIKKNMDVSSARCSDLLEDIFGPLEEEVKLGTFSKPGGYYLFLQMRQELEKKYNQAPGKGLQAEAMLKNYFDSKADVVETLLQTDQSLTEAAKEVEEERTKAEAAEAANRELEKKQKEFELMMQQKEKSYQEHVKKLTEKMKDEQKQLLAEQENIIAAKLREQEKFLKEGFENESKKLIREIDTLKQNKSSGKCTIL

T2: GST-GBP2 (mouse (cDNA from RAW264.7 cells)) (UniProt Q9Z0E6)
T2 sequence: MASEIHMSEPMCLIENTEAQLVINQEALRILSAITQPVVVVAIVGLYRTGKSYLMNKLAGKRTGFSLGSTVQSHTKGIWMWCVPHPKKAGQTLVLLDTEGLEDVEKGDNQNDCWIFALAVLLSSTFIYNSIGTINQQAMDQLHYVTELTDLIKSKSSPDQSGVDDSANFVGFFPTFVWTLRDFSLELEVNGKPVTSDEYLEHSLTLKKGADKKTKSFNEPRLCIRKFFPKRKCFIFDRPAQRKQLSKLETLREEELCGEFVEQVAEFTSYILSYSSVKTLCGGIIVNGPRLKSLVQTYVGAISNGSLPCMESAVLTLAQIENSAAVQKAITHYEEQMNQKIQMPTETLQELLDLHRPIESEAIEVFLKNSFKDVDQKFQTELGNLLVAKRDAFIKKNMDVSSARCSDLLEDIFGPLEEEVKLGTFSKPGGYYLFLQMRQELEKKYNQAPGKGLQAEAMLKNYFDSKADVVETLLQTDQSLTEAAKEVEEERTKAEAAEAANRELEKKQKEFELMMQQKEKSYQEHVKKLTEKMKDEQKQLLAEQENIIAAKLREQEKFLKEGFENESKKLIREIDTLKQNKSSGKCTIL

B1: Flag-GBP2 (full-length mouse guanylate-binding protein 2) (protein, UniProt Q9Z0E6 1-589)
chain: MASEIHMSEPMCLIENTEAQLVINQEALRILSAITQPVVVVAIVGLYRTGKSYLMNKLAGKRTGFSLGSTVQSHTKGIWMWCVPHPKKAGQTLVLLDTEGLEDVEKGDNQNDCWIFALAVLLSSTFIYNSIGTINQQAMDQLHYVTELTDLIKSKSSPDQSGVDDSANFVGFFPTFVWTLRDFSLELEVNGKPVTSDEYLEHSLTLKKGADKKTKSFNEPRLCIRKFFPKRKCFIFDRPAQRKQLSKLETLREEELCGEFVEQVAEFTSYILSYSSVKTLCGGIIVNGPRLKSLVQTYVGAISNGSLPCMESAVLTLAQIENSAAVQKAITHYEEQMNQKIQMPTETLQELLDLHRPIESEAIEVFLKNSFKDVDQKFQTELGNLLVAKRDAFIKKNMDVSSARCSDLLEDIFGPLEEEVKLGTFSKPGGYYLFLQMRQELEKKYNQAPGKGLQAEAMLKNYFDSKADVVETLLQTDQSLTEAAKEVEEERTKAEAAEAANRELEKKQKEFELMMQQKEKSYQEHVKKLTEKMKDEQKQLLAEQENIIAAKLREQEKFLKEGFENESKKLIREIDTLKQNKSSGKCTIL

Columns and labels:
[1] = target: T1, Flag-GBP2 (full-length mouse guanylate-binding protein 2) (mouse); assay: co-IP
[2] = target: T2, GST-GBP2 (mouse (cDNA from RAW264.7 cells)); assay: pull-down; both purified
[3] = target: HA-PAPL (HA-tagged poly(A) polymerase catalytic subunit of ECTV) (ectromelia virus (ECTV-Moscow)) (UniProt Q8JLG4); assay: co-IP

Molecule	binding [1]	other results
HA-PAPL (HA-tagged poly(A) polymerase catalytic subunit of ECTV) (from UniProt Q8JLG4 1-479)	binds	
HA-glutaredoxin-1 (ECTV EVM053) (from UniProt Q8JLF5 1-108)	binds	
HA-profilin (ECTV EVM141) (from UniProt Q8JL78 1-134)	binds	
His-PAPL (His-tagged PAPL of ECTV, renatured) (from UniProt Q8JLG4 1-479)		binding [2]: binds
B1		binding [3]: binds
